Test results taken from the supplement of paper PMC10126150.
Sequences with one replicate were seen in a single cluster, so their values are uncertain.

Tested on: ATP
Assay: switch fluorescence ratio, 500 uM ATP over buffer (Cy3 cluster intensity, sum of 5 cycles each) (fold (ratio)); higher = stronger signal-on switching upon ATP binding; sequences stand for … in TCGTCGGCAGCGTCAGATGTGTATAAGAGACAGTTTTTTTTTTTTTTTTTTTTTTTTT…TC
Conditions: aptamer strand: ATP DNA aptamer (quencher-CACCTGGGGGAGTATTGCGGAGGAAGG + anchor), 100 nM annealed; ATP concentration: 500 uM; one replicate
In short: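 For every switch-domain sequence, the fluorescence ratio is the mean of per-cluster values, each being summed target-cycle Cy3 intensity over summed buffer-cycle Cy3 intensity. Clusters outside 100-1000 RFU were excluded. On a modified Illumina MiSeq flow-cell, the Cy3-labelled switching-strand clusters were annealed to 100 nM quencher-labelled ATP aptamer, imaged in selection buffer and then after 15 min with 500 uM ATP at 22 °C. Five such cycles were run, with NaOH stripping and re-annealing between them.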
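Further: ATP exposure 15 min at 22 °C before imaging.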

Q: Which switch fluorescence ratio does the source give for GGCGTAGATG here?
A: 1

Q: How did the switch fluorescence ratio turn out when GGCGTCAGAT was run?
A: 1.02

Q: How did the switch fluorescence ratio turn out when GGCGTCCCCA was run?
A: 0.969

Q: For GGCGTGAATA, which switch fluorescence ratio is on record?
A: 1.02

Q: For GGCGTTAACC, which switch fluorescence ratio is on record?
A: 1.01

Q: With GGCGTTACGC as the sequence, how does the switch fluorescence ratio read?
A: 1.05

Q: How did the switch fluorescence ratio turn out when GGCGTTTGA was run?
A: 1

Q: How did the switch fluorescence ratio turn out when GGCTAAATTA was run?
A: 0.974

Q: For GGCTAACGCT, which switch fluorescence ratio is on record?
A: 1.4

Q: How did the switch fluorescence ratio turn out when GGCTAAGCCT was run?
A: 0.986

Q: GGCTAAGGTA was tested. Which switch fluorescence ratio did it give?
A: 0.979

Q: How did the switch fluorescence ratio turn out when GGCTAATGTT was run?
A: 1.01

Q: Which switch fluorescence ratio does the source give for GGCTAGGCCT here?
A: 0.994

Q: GGCTAGTAAG was tested. Which switch fluorescence ratio did it give?
A: 1.01

Q: For GGCTATAGAC, which switch fluorescence ratio is on record?
A: 1.05

Q: Which switch fluorescence ratio does the source give for GGCTATCATG here?
A: 0.98

Q: For GGCTATTACG, which switch fluorescence ratio is on record?
A: 1.03

Q: How did the switch fluorescence ratio turn out when GGCTATTACT was run?
A: 1.17

Q: Which switch fluorescence ratio does the source give for GGCTCATTTG here?
A: 1.09

Q: For GGCTCCGAAT, which switch fluorescence ratio is on record?
A: 2.33

Q: Which switch fluorescence ratio does the source give for GGCTCGTCGG here?
A: 0.974

Q: How did the switch fluorescence ratio turn out when GGCTCTAGGT was run?
A: 0.967

Q: How did the switch fluorescence ratio turn out when GGCTCTATAA was run?
A: 0.982

Q: With GGCTCTGTCG as the sequence, how does the switch fluorescence ratio read?
A: 1.04

Q: GGCTCTTGCA was tested. Which switch fluorescence ratio did it give?
A: 1.04

Q: With GGCTGAAGTC as the sequence, how does the switch fluorescence ratio read?
A: 0.957

Q: For GGCTGAGCTA, which switch fluorescence ratio is on record?
A: 1.03

Q: Which switch fluorescence ratio does the source give for GGCTGATAT here?
A: 1.03

Q: GGCTGATCGG was tested. Which switch fluorescence ratio did it give?
A: 0.931

Q: How did the switch fluorescence ratio turn out when GGCTGCCCCC was run?
A: 0.986

Q: GGCTGCGGT was tested. Which switch fluorescence ratio did it give?
A: 0.978

Q: GGCTGGATAC was tested. Which switch fluorescence ratio did it give?
A: 1.28

Q: For GGCTGTCATT, which switch fluorescence ratio is on record?
A: 0.994

Q: GGCTGTGATA was tested. Which switch fluorescence ratio did it give?
A: 0.992

Q: GGCTTAAGGA was tested. Which switch fluorescence ratio did it give?
A: 1.05

Q: For GGCTTAGAAA, which switch fluorescence ratio is on record?
A: 1

Q: How did the switch fluorescence ratio turn out when GGCTTCATAT was run?
A: 1.02

Q: For GGCTTCGCGA, which switch fluorescence ratio is on record?
A: 1.94

Q: GGCTTGCCCG was tested. Which switch fluorescence ratio did it give?
A: 0.992

Q: How did the switch fluorescence ratio turn out when GGCTTTCGGG was run?
A: 1.03

Q: With GGCTTTGCGC as the sequence, how does the switch fluorescence ratio read?
A: 1

Q: Which switch fluorescence ratio does the source give for GGCTTTGTTA here?
A: 0.939

Q: With GGGAAATTCT as the sequence, how does the switch fluorescence ratio read?
A: 1.05

Q: How did the switch fluorescence ratio turn out when GGGAACACGG was run?
A: 1.05

Q: Which switch fluorescence ratio does the source give for GGGAACTATA here?
A: 1.02

Q: With GGGAAGAGCG as the sequence, how does the switch fluorescence ratio read?
A: 1.04

Q: With GGGAAGCGGA as the sequence, how does the switch fluorescence ratio read?
A: 1.08

Q: GGGAAGCTGT was tested. Which switch fluorescence ratio did it give?
A: 0.992

Q: How did the switch fluorescence ratio turn out when GGGAAGTAA was run?
A: 1.02

Q: For GGGAATAAAT, which switch fluorescence ratio is on record?
A: 1.01

Q: For GGGAATACGA, which switch fluorescence ratio is on record?
A: 1.9

Q: How did the switch fluorescence ratio turn out when GGGAATAGGT was run?
A: 1.18

Q: With GGGAATTTGA as the sequence, how does the switch fluorescence ratio read?
A: 0.987

Q: GGGACAACCT was tested. Which switch fluorescence ratio did it give?
A: 1.41

Q: Which switch fluorescence ratio does the source give for GGGACCTACA here?
A: 1.18

Q: For GGGACCTGGG, which switch fluorescence ratio is on record?
A: 0.996

Q: How did the switch fluorescence ratio turn out when GGGACGAATA was run?
A: 1.02

Q: How did the switch fluorescence ratio turn out when GGGACTCTAT was run?
A: 1.01

Q: For GGGACTTCGC, which switch fluorescence ratio is on record?
A: 1.12

Q: For GGGACTTGAG, which switch fluorescence ratio is on record?
A: 0.945

Q: With GGGAGAACTA as the sequence, how does the switch fluorescence ratio read?
A: 0.996

Q: How did the switch fluorescence ratio turn out when GGGAGACGGC was run?
A: 0.989

Q: Which switch fluorescence ratio does the source give for GGGAGCGAGA here?
A: 0.979

Q: For GGGAGCTGGG, which switch fluorescence ratio is on record?
A: 0.975

Q: For GGGAGGACCC, which switch fluorescence ratio is on record?
A: 1.05

Q: GGGAGGCGTT was tested. Which switch fluorescence ratio did it give?
A: 0.966

Q: Which switch fluorescence ratio does the source give for GGGAGGGAG here?
A: 0.997

Q: For GGGAGTAGTG, which switch fluorescence ratio is on record?
A: 0.964

Q: GGGAGTATT was tested. Which switch fluorescence ratio did it give?
A: 1.08

Q: With GGGAGTCAGG as the sequence, how does the switch fluorescence ratio read?
A: 1.01

Q: Which switch fluorescence ratio does the source give for GGGAGTCGAT here?
A: 0.996

Q: With GGGATCGGCA as the sequence, how does the switch fluorescence ratio read?
A: 0.991

Q: GGGATGCCAG was tested. Which switch fluorescence ratio did it give?
A: 1.03

Q: GGGATGGTCT was tested. Which switch fluorescence ratio did it give?
A: 0.949

Q: With GGGATGTGGC as the sequence, how does the switch fluorescence ratio read?
A: 0.926

Q: With GGGATTGATT as the sequence, how does the switch fluorescence ratio read?
A: 0.958

Q: For GGGATTGCAG, which switch fluorescence ratio is on record?
A: 0.949

Q: How did the switch fluorescence ratio turn out when GGGATTTAGC was run?
A: 1.03

Q: With GGGCAAACGT as the sequence, how does the switch fluorescence ratio read?
A: 1.07

Q: How did the switch fluorescence ratio turn out when GGGCACAGCC was run?
A: 0.991

Q: Which switch fluorescence ratio does the source give for GGGCAGCTAC here?
A: 1.71

Q: For GGGCAGCTGC, which switch fluorescence ratio is on record?
A: 1.1

Q: GGGCATCAGA was tested. Which switch fluorescence ratio did it give?
A: 1.04

Q: With GGGCATGGTC as the sequence, how does the switch fluorescence ratio read?
A: 0.98

Q: GGGCATTAGC was tested. Which switch fluorescence ratio did it give?
A: 1.03
